Measured values: US5210075A, “Interleukin 6 antagonist peptides” (Tanabe Seiyaku Co., Ltd., priority 1990, dated 1993)
Part of at least one peptide drawing is inferred or uncertain, most often the ends. Some compounds share one wording; it may come from a single statement. No end group written: not given here.

Columns and labels:
[1] = tested on: IL-6 mediated proliferation of B9.9 cells; test: IL-6-dependent B9.9 cell proliferation assay; type: cell-based, mouse; conditions: for Percent Inhibition of IL-6 mediated proliferation of B9.9 cells: peptide concentration = 250 μM; for Active: Table I, IL-6-dependent B9.9 cell proliferation assay; for inhibition of growth of B9.9 cells (FIG. 1): fixed amount of IL-6, increasing amounts of peptide
Source text: Peptides according to the invention were synthesized by the solid phase peptide synthesis method (Merrifield, J. Am. Chem. Soc. 85:2149, 1963). The amino acid numbering of peptides derived from the IL-6 receptor (IL-6R) sequence is based on the published sequence of Yamasaki, et al, (Science 241:825, 1988), and numbering of peptides derived from the IL-6 sequence is based on the sequence of IL-6 as published by Hirano, et al. (Nature 324:73, 1986). The numbering refers to the position of the amino acids in the mature protein after excision of the signal sequence. Activity was established in an IL-6-dependent B9.9 cell proliferation assay as described hereunder.
IL-6 antagonist activity of the subject peptides was measured using the IL-6 dependent B9.9 hybridoma cell line as described in Brakenhoff et al., J. Immunol. 139:4116, 1987. Recombinant IL-6 was purchased from Genzyme, Inc. and Amgen. The B9.9 hybridoma cell line was obtained from Scripps Clinic. B9.9 cells were grown in culture supplemented with IL-6-containingsupernatant from stimulated fibroblasts, and split every 2-3 days. Only cultures with greater than 95% viable cells were used for bioassays. The fibroblast cell line GM02571 was obtained from the Human Genetic Mutant Cell Repository Institute for Medical Research. IL-6 containing supernatant (F-IL-6) was produced by stimulating confluent GM02571 fibroblasts with 50 μg/ml polyriboinosinic-polyribocytidylic acid obtained from CalBiochem.
1×10^4 cells were cultured in presence of 4-fold serial dilutions (1:16 to 1:65,536) of F-IL-6 in RPMI supplemented with 10% fetal calf serum, 2 mM L-glutamine, and 5 ×10^-5 M 2-mercaptoethanol in flat bottom microtiter plates. After 2 days the cells were incubated for 4 hours with 3-(4,5-dimethylthiazol-2-yl)-diphenyl tetrazolium bromide (MTT) and the absorbance was measured at 570-650 nm as described in Mosmann, J. Immunol. Meth. 65:55, 1983. […] One unit of IL-6 was defined as the amount of IL-6 required to obtain half maximal proliferation and was calculated by probit analysis.
Antagonist activity was measured in two different ways; first, a fixed amount of IL-6 (1-10 U/ml) was incubated with increasing amounts of peptides. Second, serial dilutions of an IL-6 containing supernatant or recombinant IL-6 were incubated with fixed amounts of peptide. This second approach allows for probit analysis and is therefore the preferred method. The peptides were preincubated with IL-6 for variable times (0-5 h) in both approaches in serum-free RPMI before the cells were added.

[2] = tested on: IL-6; test: Effect on IL-6 activity (test not described)

| Substance | Percent Inhibition of IL-6 mediated proliferation of B9.9 cells [1] [%] | also measured |
| --- | --- | --- |
| AGDFQE [AGDFQE] | 67 ± 7 |  |
| AGDFQEPSQY [AGDFQEPSQY] | 81 ± 3 |  |
| AGDFQEPSQYSQ [AGDFQEPSQYSQ] | 47 ± 17 |  |
| AGDFQEPSQYSQE [AGDFQEPSQYSQE] | 84 ± 11 |  |
| AGDFQEPSQYSQE-NH2 [AGDFQEPSQYSQE-NH2] | 71 ± 9 |  |
| AGSHPSRWAG [AGSHPSRWAG] | 59 ± 46 |  |
| ALAENNLNLP [ALAENNLNLP] | 30 ± 36 |  |
| Ac-AGDFQEPSQYSQE [Ac-AGDFQEPSQYSQE] | 46 ± 50 |  |
| Ac-GALAENNLNLP [Ac-GALAENNLNLP] | 61 ± 36 |  |
| EFGQGEWSEWS [EFGQGEWSEWS] | 77 ± 7 |  |
| EPSQYSQESQLF [EPSQYSQESQLF] | 95 ± 2 |  |
| ESSKEALAEN [ESSKEALAEN] | 78 ± 9 |  |
| FTTWMVKDLQH |  | effect on IL-6 activity [2]: enhancer |
| GALAANNLNLP [GALAANNLNLP] | 45 ± 35 |  |
| GALAEANLNLP [GALAEANLNLP] | 36 ± 35 |  |
| GALAENALNLP [GALAENALNLP] | 33 ± 51 |  |
| GALAENNANLP [GALAENNANLP] | 77 ± 21 |  |
| GALAENNLALP [GALAENNLALP] | 60 ± 5 |  |
| GALAENNLNAP [GALAENNLNAP] | 56 ± 27 |  |
| GALAENNLNL [GALAENNLNL] | 82 ± 16 |  |

| Substance | Percent Inhibition of IL-6 mediated proliferation of B9.9 cells [1] [%] | also measured |
| --- | --- | --- |
| GALAENNLNLP [GALAENNLNLP] | 97 ± 2 | Active [1]: Yes; inhibition of growth of B9.9 cells (FIG. 1) [1]: significantly inhibited in a dose-dependent manner |
| GALAENNLNLP-NH2 [GALAENNLNLP-NH2] | 80 ± 15 |  |
| GALGENNLNLP [GALGENNLNLP] | 15 ± 29 |  |
| GGLAENNLNLP [GGLAENNLNLP] | 79 ± 9 |  |
| GMGRRLLLRS [GMGRRLLLRS] | 49 ± 44 |  |
| GQLRAQ [GQLRAQ] | 70 ± 25 |  |
| GQLRAQEE [GQLRAQEE] | 81 ± 9 |  |
| GQLRAQEEF [GQLRAQEEF] | 97 ± 3 |  |
| GQLRAQEEFG [GQLRAQEEFG] | 86 ± 9 |  |
| GQLRAQEEFGQG [GQLRAQEEFGQG] | 71 ± 19 |  |
| GQLRAQEEFGQGE [GQLRAQEEFGQGE] | 97 ± 3 | Active [1]: Yes; inhibition of growth of B9.9 cells (FIG. 1) [1]: significantly inhibited in a dose-dependent manner |
| HPSRWAGMGRR [HPSRWAGMGRR] | 91 ± 2 | Active [1]: Yes; inhibition of growth of B9.9 cells (FIG. 1) [1]: significantly inhibited in a dose-dependent manner |
| HSVIHDAWSGL [HSVIHDAWSGL] | 28 ± 39 |  |
| LAENNLNLP [LAENNLNLP] | 30 ± 34 |  |
| MVKDLQHHSVIHDA [MVKDLQHHSVIHDA] | 98 ± 1 | Active [1]: Yes; inhibition of growth of B9.9 cells (FIG. 1) [1]: significantly inhibited in a dose-dependent manner |
| NLNLPKMAEK [NLNLPKMAEK] | 43 ± 38 |  |
| RHVVQLRAQEE [RHVVQLRAQEE] | 99 ± 1 |  |
| RLFQNSPAGDFQ [RLFQNSPAGDFQ] | 43 ± 64 |  |
| RYRAERSKTFT [RYRAERSKTFT] |  | Active [1]: No; inhibition of growth of B9.9 cells (FIG. 1) [1]: inactive |
